In PubChem BioAssay AID686978 (National Center for Advancing Translational Sciences (NCATS), 2013):
Out of some 420,000 compounds screened, about 64,000 (15%) were called active. Inconclusive means that the source gave no clear call. Such entries were picked first, then a sample of the others. Calls follow the shape of the dose curve; as a rule, active = well fitted inhibition curve with a large enough effect; inconclusive = small, poorly fitted or top-dose-only effect; inactive = flat fitted curve, though single readings scatter. Potencies of inconclusive entries are left out as doubtful fits.

Assay: qHTS for Inhibitors of human tyrosyl-DNA phosphodiesterase 1 (TDP1): qHTS in cells in absence of CPT; also: nearly all actives have a fitted effect of over 55% in size
Details: DT40 Tdp1-/- hTDP1 cells, no CPT, ATP luminescence, 48 h; activity change, negative = growth inhibition: at 46.2 µM (top of the series)
In short: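 DT40 Tdp1-/-;hTDP1 cells, no CPT (DMSO vehicle only), 400 cells/well; compounds pin-transferred; ≥48 hr, 37 °C; CellTiter-Glo 30 min RT dark, luminescence read.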
% is scaled to controls: 0 for no effect and ±100 for the full control effect; potency is read from the fitted curve at half-maximal effect; tags tell the direction and shape of the fitted curve.

SMILES | Potency | activity change, negative = growth inhibition
COc1ccccc1C(=O)Nc1ccc2nc(SCCOc3ccccc3C)sc2c1 | active: 18.4 µM | 
COc1ccc(S(=O)(=O)N2CCC3CC2c2cc(-c4ccc5c(c4)OCO5)ccc23)cc1 (stereo not given) | inactive | 
CC1Cc2cc(S(=O)(=O)N3CCCCC3)ccc2N1C(=O)C1CCC1 (stereo not given) | inconclusive [inhibitor, partial curve, poor fit] | 
Cc1ccc(CN2CCN(Cc3cnc(N4CCOCC4)s3)CC2CCO)cc1 (stereo not given) | inconclusive [inhibitor, single point] | 
COC(=O)[C@H](CC(C)C)NS(=O)(=O)c1ccc(F)cc1Br | inconclusive [inhibitor, single point] | 
CC(CC(=O)c1cccs1)CC(=O)c1cccs1 | inactive | 
COc1ccc(-c2cc(=O)c3c(C)cc(O)cc3o2)cc1 | inconclusive [inhibitor, single point] | 
O=C1NC[C@H](c2ccccc2)N(CCCCC2CCCCC2)C1=O | inactive | 
CC(/C=C/c1ccccc1)=N\NC(=O)CSc1ccccn1 |  | inconclusive: -30.3% [inhibitor]
COc1ccc(-c2cc(C(=O)NN)[nH]n2)cc1 | inactive | 
S=C(NCCc1ccccn1)NC1CC2CCC1C2 (stereo not given) | inactive | 
Cc1cccc(NC(=O)c2nc[nH]c2C(=O)N2CCN(C(=O)OC(C)(C)C)CC2)c1 |  | inconclusive: -31.7% [inhibitor]
Cc1sc(NC(=O)CCS(=O)(=O)c2ccccc2)c(C#N)c1C | inconclusive [inhibitor, single point] | 
CCC(=O)N1CCN(c2ccc(Cl)cc2NC(=O)c2cccc([N+](=O)[O-])c2)CC1 | inconclusive [inhibitor, partial curve] | 
CC(=O)C1=C(O)C(=O)N(c2ccc(Br)cn2)C1c1ccccc1F (stereo not given) | inconclusive [inhibitor, partial curve, poor fit] | 
O=C(C[C@H]1C[C@H](C(=O)N2CCCCC2)[C@@]2(CCc3ccccc3)c3[nH]c4ccc(Cl)cc4c3CCN2C1=O)NCc1cccc(C(F)(F)F)c1 | active: 11.6 µM | 
Fc1ccc(Nc2nc(Oc3ccccc3F)nc(N3CCCC3)n2)cc1 |  | inconclusive: -32.6% [inhibitor]
CC(=Nc1ccccc1)C1=C(O)CSC1=O | inactive | 
Cc1ccc(-c2c(C#N)c(N)n(-c3ccccc3C)c(=O)c2C#N)cc1 | inactive | 
O=C(C1CCC1)N1CCN(S(=O)(=O)c2cc(F)ccc2F)CC1 | inconclusive [inhibitor, single point] | 
CCOc1ccc(-c2nnc(SCC(=O)NCc3ccccc3Cl)o2)cc1 | inactive | 
COCC(C)NC(C(=O)Nc1ccc(C)c(Cl)c1)c1ccccc1 (stereo not given) | inconclusive [inhibitor, single point] | 
C=CCN(C(=O)c1cccc(C(F)(F)F)c1)C1(C(=O)Nc2ccccc2)CCN(C(C)C)CC1 | inconclusive [inhibitor, partial curve] | 

SMILES | Potency | activity change, negative = growth inhibition
O=C1NC(=Nc2ccccc2)S/C1=C\c1cccs1 |  | inconclusive: -31.2% [inhibitor]
CCc1nc2c(OCCOc3ccc(F)cc3)cccn2c1N(C)C(=O)CC(C)C | active: 10.3 µM | 
O=C(c1ccc2nc(N3CCCCC3)sc2c1)N1CCN(Cc2ccc3c(c2)OCO3)CC1 | inconclusive [inhibitor, single point] | 
CCN(CC)CCNS(=O)(=O)c1ccc2c3c(cccc13)C(=O)N2 | active: 14.6 µM | 
COCc1cc(C)nc2c1C(=O)NC(c1ccc(C)cc1)N2Cc1ccccc1 (stereo not given) | inconclusive [inhibitor, single point] | 
O=C(CSc1cn(CC(=O)N2CCCCC2)c2ccccc12)NCc1ccccc1 | inconclusive [inhibitor, partial curve, poor fit] | 
COCCCNC(=O)Cn1nc(-c2ccccc2OC)ccc1=O | inactive | 
COc1cc2c(cc1NC(=O)COC(=O)C(CCSC)NC(=O)c1ccccc1Cl)oc1ccccc12 (stereo not given) | inconclusive [inhibitor, single point] | 
CC(C)(C)N(Cc1ccccc1)C(=O)COC(=O)C1CC(=O)N(Cc2ccccc2)C1 (stereo not given) | inconclusive [inhibitor, single point] | 
CC(C)NC(=O)c1nn2c(C(F)(F)F)cc(-c3ccco3)nc2c1Cl | inconclusive [inhibitor, single point] | 
COc1ccc(-n2ncc3c2CC(C)(C)CC3NC(=O)c2c(C)cc(=O)oc2C)cc1 (stereo not given) | inconclusive [inhibitor, single point] | 
Cn1cccc1/C=N\NC(=O)Cc1ccc(Br)c2ccccc12 | active: 10.3 µM | 
Cc1ccc(NC(=O)c2oc3ccccc3c2NC(=O)Cc2ccccc2)cc1 | inconclusive [inhibitor, single point] | 
CC(C)(C)OC(=O)N1CCC(NC(=O)c2nc[nH]c2C(=O)NC2CCN(C(=O)OC(C)(C)C)CC2)CC1 | inconclusive [inhibitor, single point] | 
CCn1nc(C)c(CNC(=O)Nc2ccc3c(c2)OCO3)c1C | inactive | 
Cc1ccc(Cl)cc1NC(=O)CCC(=O)O | inactive | 
CCOC(=O)c1ccccc1NC(=O)CN1C(=O)c2ccccc2S1(=O)=O | inactive | 
CCOc1ccc(NC(=O)CN(C)C(=O)COc2cccc(CC)c2)cc1OCC | inconclusive [inhibitor, single point] | 
C/C(=N\Nc1cc(C(F)(F)F)ccc1Cl)c1ccccc1O |  | inconclusive: -30.7% [inhibitor]
COc1ccc(C(=O)NNC2=NC(C)(C)Cc3cc(C)c(C)cc32)cc1 | inconclusive [inhibitor, single point] | 
Cc1ccccc1NS(=O)(=O)c1ccc(OCCNS(C)(=O)=O)cc1 | inconclusive [inhibitor, partial curve, poor fit] | 
C#Cc1ccc([C@@H]2C=C(C(=O)NCc3ccccc3)O[C@H](OCc3ccc(CO)cc3)C2)cc1 | inconclusive [inhibitor, single point] | 
